Experimental data reported in the supplement of paper PMC4967469.
Lines with a small IC50 respond at low doses; where the fit passes the top or lowest dose, that dose stands as a limit. AUC sums up the same curve from the lowest dose to the 256-fold higher top dose; it is 1 without any effect and falls as sensitivity rises. An inferred top dose was derived from the fitted curves, not read from the paper.

Tests used:
Test in all cases: Viability of human cancer cell lines after 72 h of drug (GDSC screen)
BMS-509744 = compound: COc1cc(C)c(Sc2cnc(NC(=O)c3ccc(CNC(C)C(C)(C)C)cc3)s2)cc1C(=O)N1CCN(C(C)=O)CC1 [BMS-509744]; conditions: top dose 10.24 µM; top dose inferred
Description: (§1)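 Human cancer cell lines in 384-well plates, medium with 10% serum, drug for 72 h over a 256-fold dose range (nine 2-fold or five 4-fold steps up to the top dose). Adherent lines were fixed and stained with the nucleic acid dye Syto60, suspension lines read with resazurin; signal relative to control wells, capped at 0 and 100%. One two-parameter sigmoid per drug and line, fitted in a mixed model over all curves with the slope shared within a line.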

Tipifarnib = compound: Cn1cncc1[C@@](N)(c1ccc(Cl)cc1)c1ccc2c(c1)c(-c1cccc(Cl)c1)cc(=O)n2C [Tipifarnib]; conditions: top dose 16 µM; top dose inferred
Description: as §1

NG-25 = compound: CCN1CCN(Cc2ccc(NC(=O)c3ccc(C)c(Oc4ccnc5[nH]ccc45)c3)cc2C(F)(F)F)CC1 [NG-25]; conditions: top dose 10.24 µM; top dose inferred
Description: as §1

GSK-1904529A = compound: CCc1cc(Nc2nccc(-c3c(-c4ccc(OC)c(C(=O)Nc5c(F)cccc5F)c4)nc4ccccn34)n2)c(OC)cc1N1CCC(N2CCN(S(C)(=O)=O)CC2)CC1 [GSK-1904529A]; conditions: top dose 1.024 µM; top dose inferred
Description: as §1

PFI-1 = compound: COc1ccccc1S(=O)(=O)Nc1ccc2c(c1)CN(C)C(=O)N2 [PFI-1]; conditions: top dose 10 µM; top dose inferred
Description: as §1

| Cell Line | AUC (BMS-509744) | IC50 (BMS-509744) | AUC (Tipifarnib) | IC50 (Tipifarnib) | AUC (NG-25) | IC50 (NG-25) | AUC (GSK-1904529A) | IC50 (GSK-1904529A) | AUC (PFI-1) | IC50 (PFI-1) |
| --- | --- | --- | --- | --- | --- | --- | --- | --- | --- | --- |
| SIG-M5 (acute myeloid leukaemia, suspension) | 0.842 | 4.73 µM | 0.052 | < 0.0625 µM | 0.502 | 0.646 µM | 0.994 | > 1.02 µM |  |  |
| MDST8 (large intestine, adherent) | 0.957 | > 10.2 µM | 0.828 | 9.73 µM | 0.964 | > 10.2 µM | 0.988 | > 1.02 µM | 0.918 | > 10 µM |
| NCI-H720 (lung carcinoid, suspension) | 0.986 | > 10.2 µM | 0.991 | > 16 µM | 0.989 | > 10.2 µM | 0.992 | > 1.02 µM | 0.945 | > 10 µM |
| EoL-1-cell (haematopoietic neoplasm, suspension) | 0.912 | > 10.2 µM | 0.686 | 3.08 µM | 0.019 | < 0.04 µM | 0.985 | > 1.02 µM | 0.831 | 5.36 µM |
| CTV-1 (acute myeloid leukaemia, suspension) | 0.847 | 5.4 µM | 0.689 | 2.98 µM | 0.214 | 0.117 µM | 0.982 | > 1.02 µM | 0.951 | > 10 µM |
| Raji (Burkitt lymphoma, suspension) | 0.944 | > 10.2 µM | 0.848 | 10.8 µM | 0.794 | 4.36 µM | 0.988 | > 1.02 µM | 0.847 | 6.63 µM |
| NB6 (neuroblastoma, adherent) | 0.94 | > 10.2 µM | 0.845 | 15.7 µM | 0.852 | > 10.2 µM | 0.984 | > 1.02 µM | 0.909 | > 10 µM |
| VCaP (prostate, adherent) | 0.799 | 5.13 µM | 0.671 | 3.06 µM | 0.987 | > 10.2 µM | 0.955 | > 1.02 µM | 0.821 | 6.06 µM |
| Hs-445 (Hodgkin lymphoma, suspension) | 0.95 | > 10.2 µM | 0.573 | 1.56 µM | 0.83 | 5.78 µM | 0.984 | > 1.02 µM | 0.853 | 6.94 µM |
| DJM-1 (skin, adherent) | 0.929 | > 10.2 µM | 0.843 | 11.2 µM | 0.945 | > 10.2 µM | 0.989 | > 1.02 µM |  |  |
| HCC-33 (small cell lung carcinoma, adherent) | 0.965 | > 10.2 µM | 0.863 | 14.1 µM | 0.961 | > 10.2 µM | 0.986 | > 1.02 µM |  |  |
| NCI-H748 (small cell lung carcinoma, suspension) | 0.889 | > 10.2 µM | 0.957 | > 16 µM | 0.89 | > 10.2 µM | 0.979 | > 1.02 µM |  |  |
| CP67-MEL (melanoma, adherent) | 0.831 | > 10.2 µM |  |  |  |  |  |  |  |  |
| KASUMI-1 (acute myeloid leukaemia, suspension) | 0.96 | > 10.2 µM |  |  |  |  |  |  | 0.563 | 0.927 µM |
| TALL-1 (T-cell lymphoblastic leukaemia, suspension) | 0.921 | > 10.2 µM | 0.948 | > 16 µM | 0.976 | > 10.2 µM | 0.99 | > 1.02 µM |  |  |
| NCI-H2196 (small cell lung carcinoma, adherent) | 0.965 | > 10.2 µM | 0.902 | > 16 µM | 0.805 | 5.52 µM | 0.973 | > 1.02 µM |  |  |
| CESS (acute myeloid leukaemia, suspension) | 0.933 | > 10.2 µM |  |  | 0.853 | 6.29 µM | 0.99 | > 1.02 µM | 0.901 | 9.7 µM |
| NCI-H1963 (small cell lung carcinoma, suspension) | 0.97 | > 10.2 µM | 0.821 | 7.76 µM | 0.968 | > 10.2 µM | 0.991 | > 1.02 µM |  |  |
| GA-10 (Burkitt lymphoma, suspension) | 0.802 | 4.13 µM |  |  |  |  |  |  | 0.735 | 2.57 µM |
| NB17 (neuroblastoma, adherent) | 0.861 | > 10.2 µM |  |  | 0.84 | 8.67 µM |  |  |  |  |
| BB30-HNC (head and neck, adherent) | 0.858 | 8.12 µM | 0.408 | 0.563 µM | 0.879 | 10.1 µM | 0.968 | > 1.02 µM |  |  |
| D-247MG (glioma, adherent) | 0.903 | > 10.2 µM |  |  | 0.891 | > 10.2 µM |  |  | 0.918 | > 10 µM |
| SW954 (urogenital system, adherent) | 0.847 | 7.71 µM | 0.62 | 2.15 µM | 0.834 | 6.79 µM | 0.982 | > 1.02 µM |  |  |
| NK-92MI (lymphoid neoplasm, suspension) | 0.97 | > 10.2 µM | 0.703 | 3.55 µM |  |  | 0.987 | > 1.02 µM |  |  |
| DOHH-2 (B-cell lymphoma, suspension) | 0.879 | 10.1 µM | 0.772 | 6.06 µM |  |  | 0.985 | > 1.02 µM |  |  |
| EW-12 (Ewing sarcoma, suspension) | 0.976 | > 10.2 µM |  |  |  |  |  |  |  |  |
| SK-N-DZ (neuroblastoma, adherent) | 0.936 | > 10.2 µM |  |  | 0.906 | > 10.2 µM | 0.986 | > 1.02 µM | 0.842 | 6.9 µM |
| CAL-148 (breast, suspension) | 0.972 | > 10.2 µM | 0.528 | 1.19 µM | 0.96 | > 10.2 µM | 0.988 | > 1.02 µM |  |  |
